Results published in the supplement of paper PMC10185492.
This is one part of the list. Values come from read counts of a selection and are noisy.

System: SARS-CoV-2 3CLpro (nsp5)
Experiment: substrate phage enrichment score (protease-eluted vs HEPES control, +1 offset) (ratio); higher = better cleaved substrate
Conditions: selection round: 4; protease elution time: 15 min
Experimental: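 Random heptapeptide substrate phage display (M13 pIII fusion, heptapeptide between an N-terminal biotinylated AviTag GLNDIFEAQKIEWHE and pIII; phages immobilised on streptavidin) eluted by cleavage with 50 nM protease in 20 mM HEPES at 37 °C. Selected phages were NGS sequenced, and the enrichment score is (reads in protease sample + 1)/(reads in HEPES blank-selection control + 1).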

Substance | substrate phage enrichment score
SFNSGHG | > 24
WPCYRTS | > 46
EASQFPS | 6
VSRYDNV | 3.46
MRPEVNN | 1.58
ANAASVK | > 22
CAAAQQQ | 1.89
ETGRAAI | 6.33
VARPTLQ | > 26
THLSPGS | 2.25
SAAAPQQ | 1.8
TKAFPDR | 0.211
IHTQNGD | 0.167
ATTTLPT | > 31
GFQAPGP | 4.08
FRHRSDA | 1.48
KREEETN | > 26
PSDRCKT | > 37
NEGARLQ | 16.7
WENSYGR | 0.222
WRPKSEW | > 21
WSAAAHH | 0.667
RQLSTQC | > 26
PCDHHHH | 12.1
CFKQIQY | > 76

Substance | substrate phage enrichment score
WTPTATV | 3.7
RTPVLNR | > 33
RVVLECR | 4.23
HGTMQSV | > 34
VNDSRDG | > 38
TELQGEL | 0.0769
SSGVPVL | 4.83
SPFDCNR | > 76
NEWKILD | 0.375
TQLSPGQ | > 87
RGAAHHH | 0.824
TGGHESP | > 24
PTRSCHA | 12.5
PLHPSPR | 0.388
CPGVEGG | > 84
SSFTIMQ | > 76
RTSDSCM | 3
RRSRVGR | > 24
CVKPAPI | 10.5
PGTILQL | > 22
HSLQPDI | > 34
TEPAIGV | > 25
RGHAWHP | > 22
PEEQNTS | > 102
VPKCNLQ | > 24

Substance | substrate phage enrichment score
RPKLVTG | 1
KERPNFS | 0.7
DKATERI | 0.211
AVRPFST | 13.3
TRKGARE | 0.412
EERALPE | 1.06
LREHSRW | 0.217
WCRYYVL | 10.5
QCHFSPK | 2.75
SKAHYAT | 2.11
VQGGSAA | 1.08
SEVVQLQ | > 80
KSPVLHP | > 36
TDLSGKL | > 41
IPGAWTS | 1.29
RNGNMHY | 2.86
HPAPSHR | 20
TCTEMPR | 0.595
ARSTVDE | > 28
ARARTQM | 0.192
SSMTSLQ | > 46
GSRGPSQ | 10
CCRNPHA | > 27
ISNVKCQ | 3.38
TATPSLQ | > 119

Substance | substrate phage enrichment score
TKKGPTS | 0.938
RSYIGPD | 4.29
KPAVCPT | 1.08
RPAAICQ | 3.67
GRSSGPL | 2.82
WDNLNKR | 0.783
DIILKTG | > 85
CQGGSAA | 0.16
KSQLHTQ | > 29
GNTYTQG | 1.17
LCGPSRS | > 146
TSKDPGG | > 22
SKFGHGG | 4.5
TRKNCET | 12
GSPRREA | 1.43
STMQIPR | 3.35
STSPFKG | 0.714
VRPFRLQ | > 25
RKHLCPP | 1.17
PQTYRPG | 72.5
SRQEMRA | 2.75
YQGGSAA | 2.58
FGPNPVT | 3
RHIRQST | 7
VSGQADR | > 246

Substance | substrate phage enrichment score
RKGSQNY | > 23
SQLRCHE | 27
CINFQTQ | > 25
PNEMINM | > 31
KSHEVRQ | > 33
GSIHRRP | 5.25
TTIQHPM | 0.959
HCTNETG | 3.27
HRAAHHH | 2.09
APAAHHH | 0.792
TLHMSTQ | 3.4
AGNPSWC | 1.83
PSFGSPG | 2.67
RSDSMNN | > 26
NDRCMVK | > 24
TQVRLES | > 21
LNNLLSQ | > 43
VLRCHVD | 1
RRGECRM | > 34
LDTRRNG | 1.15
STSSLTV | 1
QHDPQEP | > 22
VTLHSGN | 5.25
GFAYEND | > 32
CDLSASR | 2.5

Substance | substrate phage enrichment score
LGHAQDY | 2
HAVPLGS | 0.174
LAAHHHH | 1.28
SEPMCDR | 12
TARKWAQ | 5.08
AFKEATE | > 22
ALRHRNG | 2.38
ITLQALG | > 27
QGGSAAA | 0.754
AVNHPYV | > 40
YSAQRGK | 4.08
ENRLNFQ | > 24
NTAPLIW | > 25
TTQDNER | 7.75
PHIIITI | 0.333
RSLAPSL | 2.69
RCRDTRH | 0.227
FGLCELQ | > 232
SSTCEGK | 0.286
PKTGIHS | > 26
VGAAAHH | 1.07
SQKTYTR | 9.67
HRSEPQT | > 26
RASAHHH | 0.24
SLPGKPN | 0.333

Substance | substrate phage enrichment score
LTGTSYP | 4.2
GVLESVA | 2.1
QSTRSVP | 0.733
TSAAAHH | 0.738
VTDSTMR | 1.36
SPTLIQC | 3.17
DVVQTLQ | > 22
RNASQPT | > 24
LKHSTLQ | > 35
IQNWGTT | 3.6
HLWPGNV | 0.571
HCNAQTA | 2.2
RETAHHH | 0.596
HNTTSAG | 3.07
QGAHPSA | > 52
AGTRHPD | > 27
SDAQVSK | 0.4
AKVSTNW | 0.571
QFPPPTS | 0.333
EAERMYL | 5.2
LKSKRTP | 4
KECQPSG | 1
NTGPVLR | > 68
FASGVKN | > 40
LTAAHHH | 1.32

Substance | substrate phage enrichment score
PATTQSN | > 28
WQSPRKD | > 36
ACSVRLQ | > 29
KDGSSTV | 2.91
FNSSLQS | 15
IRSRLCR | 21
TETPQRQ | > 23
TSLNQLC | > 211
NWNSTLQ | > 142
TRAAHHH | 0.307
TVPSRLQ | 15.7
SRTWPKE | 4.6
RPGRNPV | > 25
SQEQSHT | 2.43
CSGFARQ | 6
QSASACK | 0.389
GAAAHQH | 1.12
GKLKLAP | 2.2
IYSPNVN | > 53
CREELGT | 5
CQLNPIE | > 64
LIFRVVV | 1.79
KTYRPEC | 4.5
TPGTSFR | 0.0741
EDPARPS | > 31

Substance | substrate phage enrichment score
HSATCLQ | > 37
TGHVILH | > 200
PKGPYNP | > 29
APNPVSR | 3.67
HLSASSP | 3.27
VTKQEPD | 3
VYTGPRD | > 111
RSCLQCG | > 22
PDAAAHH | 1.75
KSNEDLV | > 49
EPNSILH | 12.3
FQSHEPN | > 48
SPYFQGG | 7.29
SALLQKR | 5
HSARDFQ | 0.609
NNAPVNI | 3.38
VPAAHHH | 0.494
CQHNVGS | 0.68
CYESEMR | > 74
SEPVSTW | 0.333
ASGEIDG | 2.4
ERFLLHQ | 4.17
HSKNQGG | > 21
PGDWGRP | 0.0909
IGVSAHH | 2.75

Substance | substrate phage enrichment score
GPHKNSR | 0.294
LNLKDKD | 0.611
SGDPVSR | > 53
AIHCPST | 0.171
RPPELME | 2.21
RMVVQLQ | > 46
AARDRAC | > 21
KCQEAFP | 2.67
CMRSSLT | > 30
KARDSTR | 3.33
VSRLQGD | > 26
RACTLHS | > 37
RLQSCTG | > 22
SDNVNRY | > 22
TRAEAPH | 1.08
CNWQWTY | 2.43
AGMTPMP | 14.5
QPVTNLQ | > 174
PVQWPML | 1.36
ARAELSS | > 28
PIDESSG | 3.07
NRMSLLH | > 23
PQVRCQE | 1.28
SLPSAHR | > 90
EAKNPRQ | 11.3

Substance | substrate phage enrichment score
ASIRPKA | 0.917
SWKGGLP | 2
TNYVREQ | > 22
DASSAAT | 0.867
LSTIECQ | > 21
VRNTTPH | 0.529
SAAKPDV | 2.71
CYVSENE | 16
TGVHIPN | 0.12
RPVLQSH | > 35
YHHHGAA | 0.304
HNPGSGG | 2.57
GTCLMQS | > 21
TTSDRIL | 1.21
CNSPRPV | 0.4
ASPLNNN | > 75
VRPHINN | 1.2
VTSAGPS | 2.18
VMAAHHH | 0.25
RVCPTQH | > 28
AAMTDSK | 0.917
QGSPVLQ | > 27
HAGCDTT | > 69
SYRCSLG | > 26
AASRELI | 7

Substance | substrate phage enrichment score
FASCGSV | 7.33
RDWNPAM | 1.16
PSQGLRP | > 39
VLQASGY | 12.3
PSHPRGA | 20
ALSPRPG | 0.115
FSAAHHH | 0.792
NGGLNPG | 4.94
IDRPIHC | 0.109
PCRQNGR | > 23
AKELRDP | > 46
YQHDGLK | > 31
RRADAET | 0.158
HPNQRWR | 2.44
CLGSTPS | 2.43
KALNLTP | 0.286
DPRDGHL | 1.35
QHEAALC | 2.88
GSSVSLM | > 25
FENGQVK | 11
SGKVGQL | > 84
QYSELQS | > 38
CHLSNRH | > 37
PRCWIRP | 28
GFDRPID | 1.08

Substance | substrate phage enrichment score
ACEQMWA | > 37
THWVNKD | > 66
PTQKLGL | 9
PMSAAFE | 1.7
SSRPTSA | 0.444
SCHRPVS | 3.5
CYQTRRF | 0.0571
ETNIFRT | 7.67
KSTQPSK | 1.02
RELHAGP | > 61
PAGLMWQ | > 28
LPCTEAS | 0.781
KPLFSTQ | 0.652
RSWNTLS | 1.36
LSPNDVK | > 63
SAATADY | > 42
ADSRRTL | 0.353
VSSPVLQ | 19
TKWSHQQ | 0.273
ISHNVSR | > 31
TNCVDLT | 0.947
CVAAHHH | 0.44
VGSQCDK | 0.444
ACQMAPR | > 21
EKSGPGS | 2.29

Substance | substrate phage enrichment score
SWRSVPG | > 86
NPHKTTL | 3.88
TQKSQWS | 4
RSLCPQL | 1.17
RDEKHTP | 0.333
SVTIYGE | 5.25
PHSKIQS | > 27
GCTLPRS | 3.89
INSGPLR | > 64
ESERKRR | > 23
ELYFQGG | 1.2
EELREVH | 1.6
KKQSIMG | > 37
SAAAQHK | 2.06
NKPVRLH | > 58
MYFQGGS | 1.46
SPAHHHH | 0.985
TKYLQSS | > 32
ARLPTQH | 2.62
KYDYNKG | 10
GSNARGP | 0.389
NEVSRQR | > 28
VKCPGTD | 4.12
TPTSLQG | 2.07
AKCQTPR | 21.5

Substance | substrate phage enrichment score
KTGDGCV | 0.5
MNHGVLQ | > 56
TWYRAEC | > 61
AGAAAHH | 0.5
SNPAAHH | 15.5
SDAAHHH | 0.622
CIVPTDS | 0.733
PCEDGAV | 4.75
VRCCCPV | 0.333
SAAANHQ | 1.56
WPGARPR | 0.571
VHNMDST | > 25
ELSKNPN | 5
SAAAHKQ | 1.29
GDKAVMH | 69.5
RGIVMQS | 17.5
AQDSDRR | 11.5
